We go through ten variants from IntAct's records for PubMed 21873236.

First the molecules themselves.
B1: Toll/interleukin-1 receptor domain-containing adapter protein (Homo sapiens), P58753 (parent)
chain: MASSTSLPAPGSRPKKPLGKMADWFRQTLLKKPKKRPNSPESTSSDASQPTSQDSPLPPSLSSVTSPSLPPTHASDSGSSRWSKDYDVCVCHSEEDLVAAQDLVSYLEGSTASLRCFLQLRDATPGGAIVSELCQALSSSHCRVLLITPGFLQDPWCKYQMLQALTEAPGAEGCTIPLLSGLSRAAYPPELRFMYYVDGRGPDGGFRQVKEAVMRYLQTLS

One assay covers variants of B1. To be noted: with myd88_human MYD88, Q99836.
MASSTSLPAPGSRPKKPLGKMADWFRQTLLKKPKKRPNSPESTSSDASQPTSQDSPLPPSLSSVTSPSLPPTHASDSGSSRWSKDYDVCVCHSEEDLVAAQDLVSYLEGSTASLRCFLQLRDATPGGAIVSELCQALSSSHCRVLLITPGFLQDPWCKYQMLQALTEAPGAEGCTIPLLSGLSRAAYPPELRFAYYVDGRGPDGGFRQVKEAVMRYLQTLS [M194A]: the “effect of a mutation on the interaction” value was “with no effect”. Take MASSTSLPAPGSRPKKPLGKMADWFRQTLLKKPKKRPNSPESTSSDASQPTSQDSPLPPSLSSVTSPSLPPTHASDSGSSRWSKDYDVCVCHSEEDLVAAQDLVSYLEGSTASLRCFLQLRDATPGGAIVSELCQALSSSHCRVLLITPGFLQDPWCKYQMAQALTEAPGAEGCTIPLLSGLSRAAYPPELRFMYYVDGRGPDGGFRQVKEAVMRYLQTLS [L162A]: the “effect of a mutation on the interaction” value is given as “disrupting interaction strength”. On to MASSTSLPAPGSRPKKPLGKMADWFRQTLLKKPKKRPNSPESTSSDASQPTSQDSPLPPSLSSVTSPSLPPTHASDSGSSRWSKDYDVCVCHSEEDLVAAQDLVSYLEGSTASLRCFLQLRDATPGGAIVSELCQALSSSHCRVLLITPGFLQDPWCKYQMLQAATEAPGAEGCTIPLLSGLSRAAYPPELRFMYYVDGRGPDGGFRQVKEAVMRYLQTLS [L165A], for which the “effect of a mutation on the interaction” value is listed as “disrupting interaction strength”. Same read-out and setting: for MASSTSLPAPGSRPKKPLGKMADWFRQTLLKKPKKRPNSPESTSSDASQPTSQDSPLPPSLSSVTSPSLPPTHASDSGSSRWSKDYDVCVCHSEEDLVAAQDLVSYLEGSTASLRCFLQLRDATPGGAIVSELCQALSSSHCRVLLITPGFLQDPWCKYQMLQALTEAPGAEGCTIPLLSGLSRAAYPAELRFMYYVDGRGPDGGFRQVKEAVMRYLQTLS [P189A] the value was “decreasing interaction strength”; for MASSTSLPAPGSRPKKPLGKMADWFRQTLLKKPKKRPNSPESTSSDASQPTSQDSPLPPSLSSVTSPSLPPTHASDSGSSRWSKDYDVCVCHSEEDLVAAQDLVSYLEGSTASLRCFLQLRDATPGGAIVSELCQALSSSHCRVLLITPGFLQDPWCKYQMLQALTEAPGAEGCTIPLLSGLSRAAYPPELRAMYYVDGRGPDGGFRQVKEAVMRYLQTLS [F193A], “with no effect”; for MASSTSLPAPGSRPKKPLGKMADWFRQTLLKKPKKRPNSPESTSSDASQPTSQDSPLPPSLSSVTSPSLPPTHASDSGSSRWSKDYDVCVCHSEEDLVAAQDLVSYLEGSTASLRCFLQLRDATPGGAIVSELCQALSSSHCRVLLITPGFLQDPACKYQMLQALTEAPGAEGCTIPLLSGLSRAAYPPELRFMYYVDGRGPDGGFRQVKEAVMRYLQTLS [W156A], “with no effect”. Turning to MASSTSLPAPGSRPKKPLGKMADWFRQTLLKKPKKRPNSPESTSSDASQPTSQDSPLPPSLSSVTSPSLPPTHASDSGSSRWSKDYDVCVCHSEEDLVAAQDLVSYLEGSTASLRCFLQLRDATPGGAIVSELCQALSSSHCRVLLITPGFLQDPWCKAQMLQALTEAPGAEGCTIPLLSGLSRAAYPPELRFMYYVDGRGPDGGFRQVKEAVMRYLQTLS [Y159A], the “effect of a mutation on the interaction” value was “with no effect”. On to MASSTSLPAPGSRPKKPLGKMADWFRQTLLKKPKKRPNSPESTSSDASQPTSQDSPLPPSLSSVTSPSLPPTHASDSGSSRWSKDYDVCVCHSEEDLVAAQDLVSYLEGSTASLRCFLQLRDATPGGAIVSELCQALSSSHCRVLLITPGFLQDAWCKYQMLQALTEAPGAEGCTIPLLSGLSRAAYPPELRFMYYVDGRGPDGGFRQVKEAVMRYLQTLS [P155A], for which the “effect of a mutation on the interaction” value is reported as “with no effect”.

The variants in another assay derive from B1. To be noted: with myd88_human MYD88, Q99836. The source holds these as a separate data set.
Regarding MASSTSLPAPGSRPKKPLGKMADWFRQTLLKKPKKRPNSPESTSSDASQPTSQDSPLPPSLSSVTSPSLPPTHASDSGSSRWSKDYDVCVCHSEENLVAAQDLVSYLEGSTASLRCFLQLRDATPGGAIVSELCQALSSSHCRVLLITPGFLQDPWCKYQMLQALTEAPGAEGCTIPLLSGLSRAAYPPELRFMYYVDGRGPDGGFRQVKEAVMRYLQTLS [D96N], the “effect of a mutation on the interaction” value is on record as “disrupting interaction strength”. For the variant MASSTSLPAPGSRPKKPLGKMADWFRQTLLKKPKKRPNSPESTSSDASQPTSQDSPLPPSLSSVTSPSLPPTHASDSGSSRWSKDYDVCVCHSEEDLVAAQDLVSYLEGSTASLRCFLQLRDATPGGAIVSELCQALSSSHCRVLLITPGFLQDPWCKYQMLQALTEAPGAEGCTIPLLLGLSRAAYPPELRFMYYVDGRGPDGGFRQVKEAVMRYLQTLS [S180L], the “effect of a mutation on the interaction” value was “with no effect”.
